Earlier results, collected in patent publication US20120207753A1, “METHODS OF USING CD44 FUSION PROTEINS TO TREAT CANCER” (CENTRE HOSPITALIER UNIVERSITAIRE VAUDOIS, priority 2009, published 2012).

Test system: melanoma
Details: Ahrens et al., 2001

B1: Soluble CD44: soluble CD44 of Ahrens et al., 2001 (protein)
extracellular domain: [here about 200 residues without letters]ATTLMSTSATATETATKRQETWDWFSWLFLPSESKNHLHTTTQMAGTSSNTISAGWEPNEENEDERDRHLSFSGSGIDDDEDFISSTISTTPRAFDHTKQNQDWTQWNPSHSNPEVLLQTTTRMTDVDRNGTTAYEGNWNPEAHPPLIHHEHHEEEETPHSTSTIQATPSSTTEETATQKEQWFGNRWHEGYRQTPKEDSHSTTGTAAASAHTSHPMQGRTTPSPEDSSWTDFFNPISHPMGRGHQAGRRMDMDSSHSITLQPTANPNTGLVEDLDRTGPLSMTTQQSNSQSFSTSHEGLEEDKDHPTTSTLTSSNRNDVTGGRRDPNHSEGSTTLLEGYTSHYPHTKESRTFIPVTSAKTGSFGVTAVTVGDSNSNVNRSLSGDQDTFHPSGGSHTTHGSESDGHSHGSQEGGANTTSGPIRTPQIPE
modifications: extracellular domain
Q: With B1 as the molecule, how does the melanoma tumor growth read?
A: Its melanoma tumor growth is “inhibits melanoma tumor growth”.
